# Test results: the supplement of paper PMC7826260
# The list shows a part of the results. Each Rep nickase domain was tested in vitro on the same pool of single strands at 3 µM enzyme and 37 °C for 1 h; the strands have 90 letters, of which the middle is given. A value is the log2 ratio of uncut reads to the pool without enzyme; uncut sequences lie near 0, cut ones below; no hit call is given. Because reads are shares of a total, they shift together; where an enzyme cuts many sequences, the uncut ones exceed 0.
# What was measured:
# Test in all cases: uncleaved DNA left, log2 of reads against the no-enzyme library (log2 ratio); higher = less cleavage (more negative = more Rep cleavage of the k-mer); sequences stand for … in CTCGTCCG…ACCGGAGA
# [1] = test system: T1, Rep nickase domain of Muscovy duck circovirus
# T1 sequence (residues 1-111 of Rep, tag left off): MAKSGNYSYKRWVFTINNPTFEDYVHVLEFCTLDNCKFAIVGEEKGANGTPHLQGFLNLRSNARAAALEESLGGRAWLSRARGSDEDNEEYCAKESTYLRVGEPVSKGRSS
# Method: (§1)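 A pool of 90-nt single-stranded DNAs with seven random bases just before the constant AC of the nick site (name = the seven bases) was cut by 3 µM recombinant His6-SUMO-tagged Rep nickase domain (300 nM DNA, 50 mM HEPES pH 8.0, 50 mM NaCl, 1 mM MnCl2, 1 h, 37 °C, three replicates). Uncut DNA was amplified and sequenced.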
# [2] = test system: T2, Rep nickase domain of banana bunchy top virus
# T2 sequence (residues 1-94 of Rep, tag left off): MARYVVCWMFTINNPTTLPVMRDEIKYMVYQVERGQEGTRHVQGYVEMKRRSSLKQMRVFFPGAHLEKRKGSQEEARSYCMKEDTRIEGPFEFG
# Method: as §1
# [3] = test system: T3, Rep nickase domain of cabbage leaf curl virus
# T3 sequence (residues 1-116 of Rep, tag left off): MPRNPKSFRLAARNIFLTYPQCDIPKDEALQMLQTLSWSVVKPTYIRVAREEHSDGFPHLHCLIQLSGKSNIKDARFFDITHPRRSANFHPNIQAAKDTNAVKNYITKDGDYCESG
# Method: as §1
# [4] = test system: T4, Rep nickase domain of chickpea chlorotic dwarf virus
# T4 sequence (residues 1-124 of Rep, tag left off): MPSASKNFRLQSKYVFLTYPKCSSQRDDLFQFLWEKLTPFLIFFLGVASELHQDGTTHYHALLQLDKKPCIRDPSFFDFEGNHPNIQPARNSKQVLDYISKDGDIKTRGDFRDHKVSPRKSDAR
# Method: as §1
# [5] = test system: T5, Rep nickase domain of faba bean necrotic yellows virus
# T5 sequence (residues 1-98 of Rep, tag left off): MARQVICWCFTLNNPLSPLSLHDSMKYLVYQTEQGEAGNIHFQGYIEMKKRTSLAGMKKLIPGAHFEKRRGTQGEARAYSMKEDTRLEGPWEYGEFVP
# Method: as §1
# [6] = test system: T6, Rep nickase domain of maize striate mosaic virus
# T6 sequence (residues 1-117 of Rep, tag left off): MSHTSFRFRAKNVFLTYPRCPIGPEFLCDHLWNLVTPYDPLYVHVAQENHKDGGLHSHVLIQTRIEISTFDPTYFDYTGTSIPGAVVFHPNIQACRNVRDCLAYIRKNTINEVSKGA
# Method: as §1
# [7] = test system: T7, Rep nickase domain of porcine circovirus 2
# T7 sequence (residues 2-116 of Rep, tag left off): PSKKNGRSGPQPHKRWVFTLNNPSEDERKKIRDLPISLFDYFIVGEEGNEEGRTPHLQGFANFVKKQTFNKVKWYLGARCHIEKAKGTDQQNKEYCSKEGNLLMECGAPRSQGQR
# Method: as §1
# [8] = test system: T8, Rep nickase domain of tomato golden mosaic virus
# T8 sequence (residues 1-124 of Rep, tag left off): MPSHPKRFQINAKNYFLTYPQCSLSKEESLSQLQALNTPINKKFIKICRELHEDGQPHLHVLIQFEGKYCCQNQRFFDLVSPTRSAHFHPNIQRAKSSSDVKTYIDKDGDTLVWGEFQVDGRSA
# Method: as §1
# [9] = test system: T9, Rep nickase domain of tomato yellow leaf curl virus
# T9 sequence (residues 1-136 of Rep, tag left off): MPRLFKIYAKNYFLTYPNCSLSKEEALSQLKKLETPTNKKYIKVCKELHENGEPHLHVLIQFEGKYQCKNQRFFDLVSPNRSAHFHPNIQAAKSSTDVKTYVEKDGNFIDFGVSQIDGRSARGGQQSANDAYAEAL
# Method: as §1
# [10] = test system: T10, Rep nickase domain of wheat dwarf virus
# T10 sequence (residues 1-137 of Rep, tag left off): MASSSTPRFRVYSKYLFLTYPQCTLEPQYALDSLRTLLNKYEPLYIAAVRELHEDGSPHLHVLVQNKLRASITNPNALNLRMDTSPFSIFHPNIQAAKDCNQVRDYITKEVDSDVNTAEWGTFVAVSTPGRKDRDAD
# Method: as §1
Sequence,uncleaved DNA left (log2) [1],uncleaved DNA left (log2) [2],uncleaved DNA left (log2) [3],uncleaved DNA left (log2) [4],uncleaved DNA left (log2) [5],uncleaved DNA left (log2) [6],uncleaved DNA left (log2) [7],uncleaved DNA left (log2) [8],uncleaved DNA left (log2) [9],uncleaved DNA left (log2) [10]
AACAGAC,-0.122,-0.0449,-0.0108,0.0284,-0.0328,-0.668,0.079,-0.0988,-0.147,-0.0344
GACTAAT,-2.28,-2.12,0.185,-0.286,0.038,1.16,-2.78,0.0398,0.123,0.21
CTGGGTA,0.00418,-0.189,0.0178,0.155,0.0243,0.544,-0.0458,-0.128,-0.0364,-0.0958
TCTCAAA,0.149,-0.0291,0.2,0.0215,-0.031,-0.191,-0.0816,-0.0244,-0.0353,0.0138
GTCGGGT,0.0433,-0.099,0.222,0.73,-0.0213,1.5,-0.0186,-0.00306,0.0875,-0.0126
ATGGAAT,0.2,0.181,0.441,1.7,0.153,1.9,0.278,0.124,-0.0428,0.236
ACAACAG,0.133,0.0249,-0.541,-0.358,0.11,-0.811,0.181,0.0838,0.147,0.0394
ATGCGAA,0.0228,-0.0185,-0.648,-0.513,-0.103,-1.06,-0.0324,-0.000983,-0.0546,-0.106
TTAGCTA,0.106,-0.0529,0.245,-0.415,-0.00162,0.122,-0.0104,0.161,-0.0237,0.0135
GGTAATG,0.0494,0.0826,0.515,1.2,-0.0311,1.43,0.205,0.00869,0.0285,0.0634
CCTTGTG,-0.137,-0.0804,-0.675,0.522,0.0413,-0.656,0.0539,0.0648,0.0229,-0.141
TATAGCT,-0.026,-0.148,-0.967,-2.66,0.0824,-1.17,-0.647,-0.0837,-0.045,-0.158
ACCCGAG,-0.0354,0.133,0.869,2.07,0.129,1.45,0.193,0.14,0.101,0.181
AGCTTAG,0.0624,0.13,-0.323,0.063,-0.0144,-0.742,0.136,0.0648,0.0689,0.0574
TGCTTGT,-0.14,-0.201,-0.105,-0.309,-0.139,-0.683,-0.493,-0.0714,-0.104,-0.0909
GACGGTG,0.0345,-0.0315,-0.389,-0.212,0.096,-0.418,0.0974,-0.00549,0.0786,-0.156
ACGCATG,-0.187,0.0143,-0.51,-0.367,-0.182,-1.15,0.0658,-0.0388,0.00765,0.00447
GACCCTT,-0.0188,0.048,0.795,1.33,0.122,2.13,0.0419,-0.0167,-0.0755,0.22
CGAGCCT,0.0713,0.0978,-0.0817,-0.238,-0.00675,0.629,-0.164,-0.0238,-0.0195,0.0621
ATAACGG,-0.154,-0.0389,0.225,1.07,-0.105,1.14,0.101,0.0385,-0.221,0.016
CCAAGCA,-0.0512,0.0217,0.117,1.09,-0.0392,0.887,0.167,0.0124,-0.135,0.0444
GAAACCA,-0.0338,0.0755,0.148,-0.671,-0.0426,0.72,-0.12,0.042,0.00883,0.132
ATGAGGC,0.0932,0.0367,0.097,0.117,-0.0338,-0.78,0.176,0.00226,0.0605,0.00892
GGCCCGC,0.125,0.0927,0.319,0.991,0.0374,1.49,0.0976,0.0327,0.0192,0.138
TGAGTGC,0.0187,-0.00657,-0.365,-0.318,0.00175,-0.901,0.000963,-0.0941,-0.0189,0.00446
TCTAGTC,0.161,-0.0852,0.101,-0.158,-0.0314,-0.681,0.0239,-0.0149,-0.043,0.00601
TGTGGTC,-0.106,-0.127,0.222,0.619,-0.0309,0.924,-0.0295,-0.125,-0.0267,-0.0366
ATCGTCA,-0.00012,0.0741,-0.0118,-1.06,-0.00131,-0.602,0.0241,0.0353,0.0551,-0.014
TCCAATC,0.0659,0.224,0.0581,0.229,0.0891,-0.177,0.224,0.126,0.18,0.156
ACATTGA,-0.0292,-0.0721,-0.698,-0.577,-0.0395,-1.21,0.0833,-0.076,-0.00963,-0.141
